{
  "source": "PubChem BioAssay AID1030",
  "about": "(National Center for Advancing Translational Sciences (NCATS), 2008)",
  "note": "The campaign covered roughly 220,000 compounds. About 16,000 (7.3%) were called active. Inconclusive means that the source gave no clear call. Such entries were picked first, then a sample of the others. The call rests on the fitted dose curve; in most records, active means well fitted inhibition curve with a large enough effect (not every such curve was filed as active); inconclusive means small, poorly fitted or top-dose-only effect, or another doubt; inactive means no such curve, though single readings can be large or run the other way. Potencies of inconclusive entries are left out as doubtful fits. Potency means the concentration at half of the fitted maximal effect; tags describe the fitted curve by direction and shape.",
  "data": [
    {"target": "Aldehyde dehydrogenase 1A1 (Homo sapiens) (UniProt P00352)", "sequence (P00352 whole entry, looked up)": "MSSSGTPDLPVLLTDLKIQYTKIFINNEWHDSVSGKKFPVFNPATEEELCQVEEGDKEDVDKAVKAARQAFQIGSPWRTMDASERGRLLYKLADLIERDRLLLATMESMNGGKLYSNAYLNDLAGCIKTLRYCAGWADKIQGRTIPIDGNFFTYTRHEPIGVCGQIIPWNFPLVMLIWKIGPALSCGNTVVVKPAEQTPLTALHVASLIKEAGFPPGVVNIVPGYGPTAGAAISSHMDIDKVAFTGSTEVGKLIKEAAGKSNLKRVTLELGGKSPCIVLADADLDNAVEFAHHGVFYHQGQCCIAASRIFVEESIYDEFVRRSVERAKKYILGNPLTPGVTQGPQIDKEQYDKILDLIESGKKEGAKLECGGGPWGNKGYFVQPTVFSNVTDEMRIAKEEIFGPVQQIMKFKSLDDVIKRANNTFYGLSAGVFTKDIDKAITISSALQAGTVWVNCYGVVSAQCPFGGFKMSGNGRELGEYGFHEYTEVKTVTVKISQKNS", "experiment": "qHTS Assay for Inhibitors of Aldehyde Dehydrogenase 1 (ALDH1A1);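 on activity, negative = inhibition: plate controls were no enzyme wells and a reference inhibitor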", "settings": "Purified ALDH1A1, NADH fluorescence, propionaldehyde substrate; series mostly up to 75.3 µM; activity, negative = inhibition: at the top concentration", "values": [
      {"smiles": "O=C(O)C1CC(=O)N(c2ccc(OCc3ccc(Cl)cc3Cl)cc2)C1", "note": "(stereo not drawn)", "activity, negative = inhibition": "inactive: 1.35%"},
      {"smiles": "Cn1c(CCN2CCCCC2)nc2cc(NS(=O)(=O)c3ccc(Cl)cc3)ccc21", "Potency": "inconclusive [inhibitor, single point]"},
      {"smiles": "O=C(COc1ccc(-n2cnnn2)cc1)NCCc1ccc(F)cc1", "activity, negative = inhibition": "inactive: 8.62%"},
      {"smiles": "COc1ccc2[nH]c(C(=O)O)c(CCN3C(=O)c4cccc([N+](=O)[O-])c4C3=O)c2c1", "Potency": "inconclusive [inhibitor, single point]"},
      {"smiles": "Nc1cc(=O)[nH]c(SCC(=O)Nc2ccc(S(=O)(=O)N3CCCCC3)cc2)n1", "Potency": "active: 18.9 µM"},
      {"smiles": "Cc1cc2nc(CCN(Cc3cccnc3)C(=S)Nc3ccc(F)cc3)[nH]c2cc1C", "activity, negative = inhibition": "inactive: -8.37%"},
      {"smiles": "COc1ccc(/C=C/NC(=O)c2ccc(OC)cc2)cc1", "Potency": "active: 2.82 µM"},
      {"smiles": "CSc1ccc(CN(C)CC(=O)Nc2ccc(NC(C)=O)cc2)cc1", "Potency": "inconclusive [inhibitor, single point]"},
      {"smiles": "CC1C=CCC2C(=O)N(c3cccc(C(=O)N4CCN(c5ccc(F)cc5)CC4)c3)C(=O)C12", "note": "(stereo not drawn)", "Potency": "inconclusive [inhibitor, single point]"},
      {"smiles": "CCOC(=O)CCc1cccc2c1CCC2=O", "Potency": "inconclusive [inhibitor, single point]"},
      {"smiles": "OCc1ccccc1N=c1ssnc1Cl", "Potency": "active: 0.891 µM"},
      {"smiles": "COc1ccccc1-c1cc(NCc2cnc(C)cn2)ncn1", "Potency": "inconclusive [inhibitor, single point]"},
      {"smiles": "N#Cc1c(NC(=O)CSc2ncn(-c3ccccc3)n2)sc2c1CCCC2", "Potency": "inconclusive [inhibitor, single point]"},
      {"smiles": "Cc1cc(/C=N/n2cnnc2)c(C)n1-c1ccc(OCc2ccc(Cl)cc2Cl)cc1", "Potency": "inconclusive [inhibitor, single point]"},
      {"smiles": "COc1ccc(NS(=O)(=O)c2cccs2)cn1", "activity, negative = inhibition": "inactive: 8.6%"},
      {"smiles": "Cc1nc(SCCC(=O)O)c2ccccc2n1", "activity, negative = inhibition": "inactive: 12.3%"},
      {"smiles": "COc1cccc2sc(Nc3nnc(-c4cccs4)o3)nc12", "Potency": "inconclusive [inhibitor, single point]"},
      {"smiles": "CCc1nc2ccccc2n1Cc1cc(=O)n2cc(C)ccc2n1", "Potency": "inconclusive [inhibitor, single point]"},
      {"smiles": "CC(=O)c1cc2c(cc1NC(=O)c1cc(C)nn1-c1ccccc1)OCO2", "Potency": "inconclusive [inhibitor, partial curve]"},
      {"smiles": "COCc1cc(Sc2ccc(Cl)cc2)nc(-c2ccccc2)n1", "activity, negative = inhibition": "inactive: 6.14%"},
      {"smiles": "Cc1ccc2oc3c(c(=O)c2c1)C(c1cccc(Cl)c1)N(CCCN1CCOCC1)C3=O", "note": "(stereo not drawn)", "Potency": "active: 12.6 µM"},
      {"smiles": "CCc1ccc(N(C(=O)c2snc(C(N)=O)c2N)C(C(=O)NCC2CCCO2)c2cccs2)cc1", "note": "(stereo not drawn)", "Potency": "inconclusive [inhibitor, partial curve]"},
      {"smiles": "O=C(NNC(=O)C1CCCO1)c1ccccc1Cl", "note": "(stereo not drawn)", "activity, negative = inhibition": "inactive: -0.0933%"},
      {"smiles": "CCC1c2ccc(C)n2CCN1C(=O)Nc1cc(Cl)ccc1OC", "note": "(stereo not drawn)", "Potency": "inconclusive [inhibitor, single point]"},
      {"smiles": "Cc1nc2cnc(Nc3ccccc3)nc2n(Cc2cccs2)c1=O", "Potency": "inconclusive [inhibitor, single point]"},
      {"smiles": "CCCC[C@@H]1C[C@H]1C(NC(=O)c1cccnc1)c1ccc(-c2ccccc2)cc1", "note": "(stereo partly drawn)", "activity, negative = inhibition": "inactive: 0.369%"},
      {"smiles": "CCOC(=O)c1cn(Cc2ccc(Cl)cc2Cl)c2cc(C)nn2c1=O", "Potency": "inconclusive [inhibitor, partial curve]"},
      {"smiles": "CC1CCN(CC(=O)N2CCCc3c2c(=O)oc2ccc(OCc4ccccc4)cc32)CC1", "Potency": "inconclusive [inhibitor, single point]"},
      {"smiles": "CCOC(=O)C1(CC)Oc2ccccc2C(c2ccc(OC)cc2)=C1C(=O)OC", "note": "(stereo not drawn)", "activity, negative = inhibition": "inactive: -14.7%"},
      {"smiles": "O=C(CCN1C(=O)C2C3CCC(C3)C2C1=O)Nc1ccc(Br)cc1", "note": "(stereo not drawn)", "Potency": "inconclusive [inhibitor, single point]"},
      {"smiles": "O=C(CSCc1c(Cl)cccc1Cl)Nc1ccccc1-c1ccccc1", "Potency": "inconclusive [inhibitor, single point]"},
      {"smiles": "Cc1ccc(S(=O)(=O)Nc2cc(C(F)(F)F)ccc2N2CCOCC2)c(C)c1", "Potency": "inconclusive [inhibitor, partial curve]"},
      {"smiles": "O=C(CSc1nc(-c2ccc(Cl)cc2)cs1)Nc1cccc([N+](=O)[O-])c1", "Potency": "inconclusive [inhibitor, single point]"},
      {"smiles": "COc1ccc(S(=O)(=O)n2nc(-c3ccc(Cl)cc3)cc2N)cc1OC", "Potency": "active: 89.1 µM"},
      {"smiles": "COCC(C)OC(=O)/C(C#N)=C\\c1coc2ccc(C)cc2c1=O", "note": "(stereo not drawn)", "Potency": "inconclusive [inhibitor, partial curve]"},
      {"smiles": "O=S(=O)(c1ccc(F)cc1)N1CCN(c2ccccc2)CC1", "Potency": "inconclusive [inhibitor, partial curve]"},
      {"smiles": "CCOc1ccc(NC(=O)N2CC=C(n3c(=O)[nH]c4ccccc43)CC2)cc1", "Potency": "inconclusive [inhibitor, partial curve]"},
      {"smiles": "CCn1c(=O)c2cc(C(=O)NCCN3CCOCC3)sc2c2ccccc21", "Potency": "inconclusive [inhibitor, partial curve]"},
      {"smiles": "C[C@@H](O)c1nc2ccccc2n1N", "activity, negative = inhibition": "inactive: 2.1%"},
      {"smiles": "CC1=C(C(=O)OCc2ccccc2)C(c2ccc(N(C)C)cc2)NC(=O)N1", "note": "(stereo not drawn)", "Potency": "inconclusive [inhibitor, single point]"},
      {"smiles": "Cc1cc2nc(SCCN3CCCC3)[nH]c2cc1C", "Potency": "inconclusive [inhibitor, partial curve]"},
      {"smiles": "O=c1c(Cc2ccc(F)cc2)c(O)ccn1CCCN1CCOCC1", "activity, negative = inhibition": "inactive: 3.64%"},
      {"smiles": "CN1CCN(S(=O)(=O)c2ccc(NC(=S)NC(=O)c3ccccc3)cc2)CC1", "Potency": "active: 25.1 µM"},
      {"smiles": "O=S(=O)(NCC1CCN(S(=O)(=O)c2ccccc2)CC1)c1ccccc1", "Potency": "active: 1.58 µM"},
      {"smiles": "O=C(C1CCCN(S(=O)(=O)c2ccc(F)cc2)C1)N1CCCC1", "note": "(stereo not drawn)", "activity, negative = inhibition": "inactive: 1.65%"},
      {"smiles": "CCOCCCNC(=O)C(c1ccc(OC)cc1)N(Cc1cccs1)C(=O)c1ccccc1O", "note": "(stereo not drawn)", "Potency": "inconclusive [inhibitor, partial curve]"},
      {"smiles": "O=c1[nH]cnc2sc3c(c12)CCN(Cc1ccccc1)C3", "Potency": "inconclusive [inhibitor, single point]"},
      {"smiles": "O=C(COc1ccc(S(=O)(=O)N2CCCCC2)cc1)NCC1CCCO1", "note": "(stereo not drawn)", "Potency": "inconclusive [inhibitor, single point]"},
      {"smiles": "CN(C)S(=O)(=O)N(CC(=O)Nc1ccc(F)c(F)c1)c1ccccc1", "activity, negative = inhibition": "inactive: 5.9%"},
      {"smiles": "Cc1nc2cc(-c3ccc(Cl)cc3)nn2c(NCCN(C)C)c1C", "Potency": "inconclusive [inhibitor, single point]"},
      {"smiles": "COc1cccc(NC(=O)N2CCCC2)c1", "activity, negative = inhibition": "inactive: 2.16%"},
      {"smiles": "CCN(CC)c1ccc(NC(=O)COc2ccccc2C)cc1S(=O)(=O)Nc1ccccc1OC", "Potency": "active: 11.9 µM"},
      {"smiles": "COc1ncc2nc(CCc3ccccc3)c(=O)n(CCc3ccccc3)c2n1", "Potency": "inconclusive [inhibitor, partial curve]"},
      {"smiles": "Cc1cc2n(n1)SC(Nc1cccc3ccccc13)N2", "note": "(stereo not drawn)", "Potency": "active: 12.6 µM"},
      {"smiles": "CC(=O)Nc1ccc(S(=O)(=O)C(C#N)c2nc3ccccc3nc2NCCO)cc1", "note": "(stereo not drawn)", "Potency": "inconclusive [inhibitor, partial curve]"},
      {"smiles": "CC(C)(C)NC(=O)CON=C1c2ccccc2-c2ccccc21", "activity, negative = inhibition": "inactive: 0.848%"},
      {"smiles": "Cc1ccc(-n2nc3cc(C)c(N)cc3n2)cc1", "Potency": "inconclusive [inhibitor, partial curve]"},
      {"smiles": "CC1CC[C@@]2(OC1)OC1CC3C4CC=C5CC(O)CC[C@@]5(C)C4CC[C@]3(C)C1C2C", "note": "(stereo partly drawn)", "activity, negative = inhibition": "inactive: -0.682%"},
      {"smiles": "COCCCNC(=O)COC(=O)c1ccc(-c2nc3ccccc3s2)s1", "Potency": "inconclusive [inhibitor, partial curve]"},
      {"smiles": "Nc1sccc1C(=O)c1ccc(Cl)cc1", "activity, negative = inhibition": "inactive: 3.14%"},
      {"smiles": "Cc1cccc(NC(=O)c2cc(NC(=O)C3CCCCC3C(=O)O)ccc2Cl)n1", "note": "(stereo not drawn)", "activity, negative = inhibition": "inactive: -12.5%"},
      {"smiles": "Cc1nc2ncnn2c(N2CCN(C(=O)c3cccc(F)c3)CC2)c1C", "Potency": "inconclusive [inhibitor, single point]"},
      {"smiles": "Cc1ccc(Cn2c(NC(=O)c3ccco3)nc3ccccc32)cc1", "Potency": "inconclusive [inhibitor, single point]"},
      {"smiles": "Cc1ccc(C(c2nnnn2C2CCCC2)N2CCc3ccccc32)cc1", "note": "(stereo not drawn)", "Potency": "inconclusive [inhibitor, single point]"},
      {"smiles": "C/C(CC(=O)Nc1ccc(OCc2ccccc2)cc1)=N\\NC(=O)C(=O)Nc1ccc(C)c(Cl)c1", "Potency": "active: 14.1 µM"},
      {"smiles": "COc1ccc(-c2cc(=O)c3c(O)cc(O[C@@H]4OC(COC5OC(C)C(O)C(O)[C@@H]5O)C(O)C(O)C4O)cc3o2)cc1", "note": "(stereo partly drawn)", "activity, negative = inhibition": "inactive: -4.74%"},
      {"smiles": "O=C(Nc1nc2c(s1)CCc1ccccc1-2)c1ccco1", "Potency": "inconclusive [inhibitor, single point]"},
      {"smiles": "Cc1nn(C)c(Oc2ccc(Cl)cc2)c1C(=O)Nc1ccc(F)cc1F", "activity, negative = inhibition": "inactive: 1.05%"},
      {"smiles": "Cc1cccc(-n2nnc(C(=O)NCc3ccccc3Cl)c2N)c1", "Potency": "inconclusive [inhibitor, partial curve]"},
      {"smiles": "COC(=O)CCn1[nH]c(=O)c2ccccc2c1=O", "Potency": "inconclusive [inhibitor, single point]"},
      {"smiles": "Cc1ccc(S(=O)(=O)c2cc3ccccc3nc2N)cc1", "Potency": "inconclusive [inhibitor, single point]"},
      {"smiles": "OCC(CO)(CO)N=Cc1c(O)ccc2ccccc12", "Potency": "inconclusive [inhibitor, single point]"},
      {"smiles": "O=C(NCCC1=CCCCC1)C1CC(=O)N(C2CCCCC2)C1", "note": "(stereo not drawn)", "Potency": "inconclusive [inhibitor, single point]"}
    ]}
  ]
}
